Results taken from the supplement of paper PMC9446081.
About 220 (0.56%) of roughly 39,000 compounds showed activity. The list shows a part of the results.
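Further: static incubation at 37 °C against the wild-type strain, values averaged over two biological replicates.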

What follows are compounds tested on Escherichia coli K-12 BW25113 (assay: relative growth (OD600 normalised to plate interquartile mean) (fraction); higher = less growth inhibition, active = 0.2 or less). Conditions: 50 µM; LB; incubation time: overnight (16-24 h).
With `C=C[C@]1(C)C=C2CC[C@H]3C(C)(C)[C@H](O[C@@H]4O[C@@H](CO)[C@H](O)[C@H]4O)CC[C@@]3(C)[C@H]2C[C@@H]1O[C@@H]1O[C@H](CO)[C@@H](OC)[C@H](O)[C@H]1O` the relative growth was inactive: 0.994. With `C[C@@H]1CN([C@@H](C)CO)C(=O)c2cc(NC(=O)c3ccccc3)ccc2O[C@@H](C)CCCCO[C@H]1CN(C)Cc1ccccc1` the relative growth was inactive: 0.945. In the case of `Cc1noc(C)c1NC(=O)Nc1ccc2c(c1)CC(=O)N([C@@H](C)CO)C[C@H](C)[C@@H](CN(C)Cc1ccc(Cl)c(Cl)c1)O2`, the relative growth is reported as inactive: 0.986. With `CCCCC[C@H]1C[C@H]1C[C@H]1C[C@H]1CCCCCCCC(=O)O` the relative growth was inactive: 0.927. For `CCCC(=O)Nc1ccc2c(c1)OC[C@H](C)N(S(=O)(=O)c1cn(C)cn1)C[C@@H](C)[C@@H](OC)CN(C)C2=O`, the relative growth was inactive: 0.985. In the case of `Cc1ccc(S(=O)(=O)Nc2cccc3c2O[C@@H](CN(C)Cc2ccc(C(F)(F)F)cc2)[C@@H](C)CN([C@@H](C)CO)C3=O)cc1`, the relative growth is reported as inactive: 0.986. `COc1ccc(CN(C)C[C@H]2OCCCC[C@H](C)Oc3ccc(NS(=O)(=O)c4ccc(C)cc4)cc3C(=O)N([C@H](C)CO)C[C@H]2C)cc1` was tested, and the relative growth was inactive: 1.01. In the case of `C[C@@H]1CCCCO[C@H](CN(C)S(=O)(=O)c2ccccc2)[C@H](C)CN([C@@H](C)CO)C(=O)c2cc(NC(=O)C3CCCCC3)ccc2O1`, the relative growth is reported as inactive: 1.02. With `C[C@@H]1CN([C@H](C)CO)C(=O)c2cc(NC(=O)c3ccccc3)ccc2O[C@@H](C)CCCCO[C@@H]1CN(C)S(=O)(=O)c1cccs1` the relative growth was inactive: 1.03. For `C[C@@H]1CCCCO[C@H](CN(C)S(=O)(=O)c2ccc(Cl)cc2)[C@@H](C)CN([C@@H](C)CO)C(=O)c2cc(NC(=O)Nc3ccc(F)cc3)ccc2O1`, the relative growth was inactive: 1.05. `CC(=O)N1CCN(C(=O)Cc2ccc(S(C)(=O)=O)cc2)C[C@@H](O)C1` was tested, and the relative growth was inactive: 0.97. With `CCCC#Cc1ccc2c(c1)O[C@@H](CN(C)C(=O)c1cnccn1)[C@@H](C)CN([C@@H](C)CO)S2(=O)=O` the relative growth was inactive: 1.02. `COc1ccc(CN(C)C[C@@H]2Oc3ccc(NC(=O)CCN4CCOCC4)cc3C(=O)N([C@@H](C)CO)C[C@@H]2C)cc1` was tested, and the relative growth was inactive: 1. For `COc1cccn(CC(=O)NN)c1=O`, the relative growth was inactive: 1.01. For `Cc1ccc(S(=O)(=O)N2C[C@@H](O)COC[C@@H]3O[C@H](CC(=O)NCCCN(C)C)CC[C@H]32)cc1`, the relative growth was inactive: 1.01. With `COc1ccc(S(=O)(=O)Nc2ccc3c(c2)C(=O)N([C@H](C)CO)C[C@@H](C)[C@@H](CN(C)S(=O)(=O)c2ccc(OC)cc2)O3)cc1` the relative growth was inactive: 1. With `N=C(N)NS(=O)(=O)c1ccc(N)cc1` the relative growth was inactive: 0.867. For `COc1ccc2c3c([nH]c2c1)[C@@H](CO)N(CC1CCCCC1)C[C@]13CN(C1)C(=O)Nc1cccc(c1)F`, the relative growth was inactive: 1.03. For `CC(C)NC(=O)Nc1ccc2c(c1)C(=O)N([C@@H](C)CO)C[C@@H](C)[C@@H](CN(C)Cc1ccc(C(=O)O)cc1)O2`, the relative growth was inactive: 0.911. In the case of `CO[C@@H]1CN(C)C(=O)c2ccc(NS(=O)(=O)CC(F)(F)F)cc2OC[C@@H](C)N(C(=O)NC(C)C)C[C@H]1C`, the relative growth is reported as inactive: 1.01. For `CC(C)(C)C(=O)C[n+]1cccc(C(N)=O)c1`, the relative growth was inactive: 1.02. `Cc1cc(C(=O)Nc2cccc3c2O[C@H](CN(C)S(=O)(=O)c2ccccc2)[C@@H](C)CN([C@@H](C)CO)C3=O)n(C)n1` was tested, and the relative growth was inactive: 0.981. For `CCCNc1ncnc(N)c1[N+](=O)[O-]`, the relative growth was inactive: 0.973. `CCOC(=O)N(C)C[C@@H]1OCc2cn(nn2)CCCC(=O)N([C@H](C)CO)C[C@H]1C` was tested, and the relative growth was inactive: 1.02. For `CN1C[C@@H](O)COC[C@H]2O[C@H](CC(=O)N3CCN(c4ccccc4)CC3)CC[C@@H]21`, the relative growth was inactive: 0.994. For `COc1ccc(CN(C)C[C@@H]2OCCCC[C@H](C)Oc3ccc(NC(=O)c4ccncc4)cc3C(=O)N([C@H](C)CO)C[C@@H]2C)cc1`, the relative growth was inactive: 1. In the case of `C[C@H]1CCCCO[C@@H](CN(C)C(=O)Nc2ccccc2)[C@@H](C)CN([C@@H](C)CO)C(=O)c2cc(NC(=O)Nc3ccccc3)ccc2O1`, the relative growth is reported as inactive: 1.02. With `Cc1noc(C)c1NC(=O)Nc1cccc2c1O[C@@H](CN(C)C(=O)NC(C)C)[C@@H](C)CN([C@H](C)CO)C2=O` the relative growth was inactive: 1. `C[C@@H]1CN([C@@H](C)CO)C(=O)c2cc(NC(=O)CCN3CCOCC3)ccc2O[C@H]1CN(C)C(=O)Nc1ccc2c(c1)OCO2` was tested, and the relative growth was inactive: 0.974. With `CCC(=O)Nc1ccc2ccccc2c1` the relative growth was inactive: 0.842. In the case of `N#Cc1ccc(N2CCCNCC2)nc1`, the relative growth is reported as inactive: 0.952. With `O=C(C[C@@H]1CC[C@@H]2[C@H](COC[C@H](O)CN2S(=O)(=O)c2ccccc2)O1)N1CCc2ccccc2C1` the relative growth was inactive: 1.01. With `C[C@H](CO)N1C[C@H](C)[C@H](CN(C)C(=O)Nc2ccc3c(c2)OCO3)Oc2c(NC(=O)C3CC3)cccc2C1=O` the relative growth was inactive: 0.995. For `Cc1cncc2cccc(S(=O)(=O)NCCN(C/C=C/c3ccc(Br)cc3)C/C=C/c3ccc(Br)cc3)c12`, the relative growth was inactive: 0.98. `COc1ccc(S(=O)(=O)N(C)C[C@@H]2Oc3ccc(NC(=O)c4ccncc4)cc3CC(=O)N([C@@H](C)CO)C[C@@H]2C)cc1` was tested, and the relative growth was inactive: 0.928. `COc1ccc(NC(=O)Nc2cccc3c2O[C@@H](CN(C)Cc2ccc(C(=O)Nc4ccccc4N)cc2)[C@H](C)CN([C@H](C)CO)C3=O)cc1` was tested, and the relative growth was inactive: 1.01. `COc1ccc(NC(=O)Nc2cccc3c2O[C@H](CN(C)Cc2ccc(C(F)(F)F)cc2)[C@H](C)CN([C@@H](C)CO)C3=O)cc1` was tested, and the relative growth was inactive: 0.992. For `O=C(C[C@H]1CC[C@H]2[C@@H](COC[C@H](O)CN2C(=O)Nc2ccc(C(F)(F)F)cc2)O1)NCc1ccncn1`, the relative growth was inactive: 0.983. `COc1ccc(-c2cc(=O)c3c(O)cc(O[C@@H]4O[C@H](CO[C@H]5O[C@H](C)[C@@H](O)[C@H](O)[C@@H]5O)[C@@H](O)[C@H](O)[C@H]4O)cc3o2)cc1O` was tested, and the relative growth was inactive: 1.03.
